Data reported in PubChem BioAssay AID686978 (National Center for Advancing Translational Sciences (NCATS), 2013).
Several values for one entry are separate records, joined by “and”; a condition that tells them apart may be missing. Identical values can stand only once. The campaign covered roughly 420,000 compounds. About 64,000 (15%) were called active. The inconclusive results got no clear call from the source; some entries with a clear call stand among them for comparison. Calls come from the whole dose curve; as a rule, active = well fitted inhibition curve with a large enough effect; inconclusive = small, poorly fitted or top-dose-only effect; inactive = flat fitted curve, though single readings scatter. Potencies of inconclusive entries are left out as doubtful fits.

assay: qHTS for Inhibitors of human tyrosyl-DNA phosphodiesterase 1 (TDP1): qHTS in cells in absence of CPT; conditions: DT40 Tdp1-/- hTDP1 cells, no CPT, ATP luminescence, 48 h; activity change, negative = growth inhibition: at 46.2 µM (top of the series) unless noted; note: nearly all actives have a fitted effect of over 55% in size
Method in brief: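 Stably hTDP1-transfected Tdp1-null chicken DT40 cells were treated with library compounds minus camptothecin and grown for at least 48 hr at 37 °C, after which cellular ATP was quantified by luminescence.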
% is set by controls: 0 for no effect and ±100 for the full control effect; potency is the fitted concentration of half-maximal effect; tags give direction and shape of the fitted curve.

SMILES | Potency | activity change, negative = growth inhibition
CC12CCC(=O)N1C(C(=O)Nc1ccc(Cl)c(Cl)c1)CS2 (configuration not stated) | inactive | 
Cc1ccc(NC(=O)COc2cccc(Oc3ccccc3)c2)cc1S(=O)(=O)N1CCOCC1 | inconclusive [inhibitor, single point] | 
CCOc1ncccc1C(=O)NCc1ccc(C)cc1 | inactive | 
COc1ccc(-c2csc(NC(=O)[C@H](C)N3C(=O)C4CC=CCC4C3=O)n2)cc1OC (some centres not stated) | inconclusive [inhibitor, single point] | 
COC(=O)c1nnn(-c2nonc2N)c1CSc1nnc(N)s1 | inactive | 
CCOC(=O)c1c(NC(=O)CSc2ncccn2)sc2c1CCN(Cc1ccccc1)C2 | inconclusive [inhibitor, single point] | 
COc1ccccc1NC(=O)CSc1ccc2nnc(CCNC(=O)c3ccccc3)n2n1 | inactive | 
COc1ccc(N/N=C(\C=N\O)C(=O)c2ccc(OC)cc2)cc1 | active: 2.91 µM | 
CCN(c1ccccc1)S(=O)(=O)c1cccc(C(=O)NCC(c2cccs2)N2CCOCC2)c1 (configuration not stated) | inconclusive [inhibitor, single point] | 
CN1CCN(c2ccc(NC(=O)c3cccs3)cc2)CC1 | inactive | 
CCCC(=O)NC(=S)Nc1c(C)cc(Br)cc1C | active: 16.4 µM | 
C[C@H](CO)N1C[C@H](C)[C@@H](CN(C)S(=O)(=O)c2cccs2)Oc2ccc(NS(=O)(=O)c3ccccc3)cc2CC1=O | inconclusive [inhibitor, single point] | 
COc1cc(C(=O)N2C(=O)CCC2=O)cc(OC)c1OC | inactive | 
CCN(CC)c1ccc(CN2CCCCCC2)cc1 | inactive | 
Cc1ccc(N(C)C(=O)C2CCN(S(=O)(=O)c3ccc4c(c3)oc(=O)n4C)CC2)cc1 | inconclusive [inhibitor, single point] | 
COc1cccc(C(O)c2nc(-c3cccc(C#N)c3)cs2)c1 (configuration not stated) | inconclusive [inhibitor, single point] | 
CCN(CC)c1ccc2cc(-c3nc(-c4ccc(OC)cc4)cs3)c(=O)oc2c1 | active: 14.6 µM | 
COc1ccc(-c2nc(C(=O)Nc3ccc(C(C)=O)cc3)nn2-c2cccc(Cl)c2)cc1 | inconclusive [inhibitor, single point] | 
CN(C)c1ccc(-c2cc(NCc3cccnc3)ncn2)cc1 | inactive | 
CC(OC(=O)C1CCN(S(=O)(=O)c2ccc(Cl)cc2)CC1)C(=O)N1CCc2ccccc21 (configuration not stated) | inconclusive [inhibitor, single point] | 
O=[N+]([O-])c1ccc(N/N=C/c2sc(N3CCOCC3)nc2-c2ccccc2)c(S(=O)(=O)Nc2ccccc2Cl)c1 | active: 1.84 µM | 
CN1CCN(c2nc(-c3cccs3)nc3ccccc23)CC1 | inconclusive [inhibitor, single point] | 
CCCCC(=O)Nc1nnc(S(=O)(=O)N2CCCCCC2)s1 | inactive | 
O=C1C=CC(=C(c2ccc(O)cc2)c2ccc(O)cc2)C=C1 | active: 5.17 µM and active: 2.31 µM | 

SMILES | Potency | activity change, negative = growth inhibition
CCc1ccc2oc(C(=O)N3CCN(c4ccc(OC)cc4)CC3)cc(=O)c2c1 | inconclusive [inhibitor, partial curve] | 
CC(C)CN(C(=O)C1CC1)c1c(N)n(Cc2ccccc2)c(=O)[nH]c1=O | inactive | 
Cc1ccc(S(=O)(=O)/N=C2\SC(CC(=O)Nc3ccc(F)cc3)C(=O)N2c2ccccc2)cc1 (configuration not stated) | inactive | 
CC(=O)C1=CCC(c2ccc(Cl)cc2)N(S(=O)(=O)c2ccccc2)C1 (configuration not stated) | active: 18.4 µM | 
CCCCCCC(=O)Nc1nc(C)c(-c2csc(Nc3cc(Cl)ccc3OC)n2)s1 | inconclusive [inhibitor, partial curve] | 
COC(=O)[C@@H]1C[C@@H](NC(=O)c2ccc(C(F)(F)F)cc2)CN1Cc1cccc(O)c1 | inactive | 
COCCn1c(SCC(=O)NC2CCCCC2)nnc1-c1ccncc1 | inactive | 
Cc1sc(N)nc1-c1ccc(Oc2ccccc2)cc1 | inconclusive [inhibitor, single point] | 
Cc1ccc(Cc2nnc3n(-c4ccccc4)nc(C(=O)c4ccccc4)n3c2=O)cc1 | inconclusive [inhibitor, single point] | 
COC(=O)c1[nH]c2ccc(C)cc2c1NS(=O)(=O)c1ccc(F)c(C)c1 |  | inconclusive: -32.6% [inhibitor]
COc1ccc(NC(=O)N2CCCC2C(=O)NCc2ccc(C)cc2)cc1 (configuration not stated) | inactive | 
COc1ccc(CNC(=S)Nc2cc(C)ccc2C)cc1 | active: 18.4 µM | 
CCN(c1cccc(C)c1)C(CNS(=O)(=O)c1ccccc1)c1ccccc1 (configuration not stated) | inconclusive [inhibitor, single point] | 
CC(=O)c1cc2c(cc1N(C(=O)c1ccco1)C(C(=O)NC1CCCC1)c1ccccc1F)OCO2 (configuration not stated) | inactive | 
O=C(NC1CCN(Cc2ccc(Cl)cc2)CC1)c1cn(-c2ccccc2)nc1-c1cccnc1 | inconclusive [inhibitor, single point] | 
CCOc1cc(CNCCCN2CCOCC2)ccc1OCC(=O)NC(C)(C)C | inactive | 
CCOc1ccc(NC(=O)c2cccc(N3CCCS3(=O)=O)c2)cc1 | inactive | 
Cc1cc(Cl)ccc1NC(=O)COC(=O)c1cc([N+](=O)[O-])ccc1N1CCOCC1 | inconclusive [inhibitor, single point] | 
COc1ccc(-n2c(SCC(C)=O)nc3sc(C)c(C)c3c2=O)cc1 | inactive | 
Cc1ccc(C)c(CNC(=O)C2CCCCN2S(=O)(=O)c2ccc(F)cc2)c1 (configuration not stated) | inconclusive [inhibitor, partial curve] | 
CCOc1ccc(C(=O)OCC(=O)NC(C)C)cc1 | inconclusive [inhibitor, single point] | 
Cc1cc(=O)[nH]c(SCC(=O)Nc2nonc2C)n1 | inactive | 
CN(Cc1ccccc1F)c1nc(-c2cccs2)nc2ccccc12 | inconclusive [inhibitor, single point] | 
Oc1ccc(-c2nc3ccccc3nc2-c2ccc(O)cc2O)c(O)c1 | inconclusive [inhibitor, single point] | 

SMILES | Potency | activity change, negative = growth inhibition
CC(C)NC(=O)c1ccccc1NC(=O)CCc1ccccc1 | inactive | 
CCC(=O)N1c2ccccc2CC1C(=O)NCCCN1CCN(c2ccccc2)CC1 (configuration not stated) | inconclusive [inhibitor, single point] | 
Cc1ccc(Cl)cc1N1CCN(S(=O)(=O)c2c(C)[nH]c(C)c2C(=O)N2CCCCC2)CC1 | inconclusive [inhibitor, single point] | 
O=C(Nc1ccc(F)c(Cl)c1)C1CCCN(c2ncnc3onc(-c4ccc(F)cc4)c23)C1 (configuration not stated) | active: 14.6 µM | 
Cc1cccc(C(=O)OCC(=O)N2CC(C)CC(C)C2)c1C (configuration not stated) | inconclusive [inhibitor, single point] | 
NC(=O)c1cnn2c(C(F)(F)F)cc(-c3ccccc3)nc12 | inconclusive [inhibitor, single point] | 
Cc1ccc(CCNS(=O)(=O)c2ccc3c(c2)NC(=O)CCS3)cc1 | inconclusive [inhibitor, single point] | 
CCSc1ccccc1C(=O)n1nnc2ccccc21 | inconclusive [inhibitor, single point] | 
Cc1ccc(C(=O)NCC(=O)OCC(=O)Nc2cc(S(=O)(=O)N3CCOCC3)ccc2Cl)s1 | inactive | 
CN(C(=O)COC(=O)c1ccc(Cl)nc1)C1CCS(=O)(=O)C1 (configuration not stated) | inactive | 
COc1ccccc1N1CCN(C(=O)c2cc(=O)c3ccc(C)cc3o2)CC1 | inconclusive [inhibitor, partial curve, poor fit] | 
Cc1ccc(N2C(=O)SC(Cc3ccccc3)C2=O)cc1 (configuration not stated) | inconclusive [inhibitor, single point] | 
Cc1ccc(S(=O)(=O)CCC(=O)Nc2sccc2C#N)cc1 | active: 20.6 µM | 
CC(C)CCNC(=O)CCCOc1cc(=O)n(C)c2ccccc12 | inconclusive [inhibitor, single point] | 
O=C(c1ccccc1[N+](=O)[O-])N1CCC(Cc2ccccc2)CC1 | inconclusive [inhibitor, full curve] | 
CC(C)CC(c1nnnn1C(C)C)N1CCN(c2ccccc2)CC1 (configuration not stated) | inconclusive [inhibitor, single point] | 
OC(c1ccc(F)c(F)c1)c1nc(-c2csc3ccccc23)cs1 (configuration not stated) | inconclusive [inhibitor, single point] | 
CN(C)/C=C/C(=O)c1ccc2noc(-c3cccc(F)c3)c2c1 | inconclusive [inhibitor, partial curve] | 
O=C(c1ccc2ccccc2c1)C1CCCN(C(=O)c2noc3c2CCCC3)C1 (configuration not stated) | inconclusive [inhibitor, single point] | 
Cn1c(N2CCOCC2)c(/C=N/OC(=O)c2ccc(F)cc2)c2ccccc21 | active: 2.91 µM | 
CC(/C=N/NC(=O)COc1ccccc1C)=N\NC(=O)COc1ccccc1C | inconclusive [inhibitor, single point] | 
Cn1c(SCC(=O)N2CCCc3ccccc32)nc2cccnc21 | inconclusive [inhibitor, single point] | 
CC1CCCCN1C(=O)c1cc(-c2ccc(Cl)c(Cl)c2)on1 (configuration not stated) |  | inconclusive: -36% [inhibitor]
Cc1c(C(=O)N2CCN(c3ncccn3)CC2)oc2ccc(F)cc12 | inconclusive [inhibitor, single point] | 
